# PubChem BioAssay AID1508624 (National Center for Advancing Translational Sciences (NCATS), 2021)
# About 120 (0.25%) of roughly 48,000 compounds were called active. Not shown: some 4% with an inconclusive outcome. The call rests on the fitted dose curve; in most records, active means well fitted activation curve with a large enough effect; inconclusive means small, poorly fitted or top-dose-only effect, or another doubt; inactive means no such curve, though single readings can be large or run the other way. This is one part of the list.
# Experiment: Primary qHTS for Identification of Small Molecule Activators of Huntingtin-Antisense Promoter Activity; further: nearly all actives have a fitted effect of over 55% in size
# Settings: HEK293 HTT-AS promoter firefly luciferase reporter, 24 h; series mostly up to 57.5 µM; activity change, positive = activation: at the top concentration
# Procedure, shortened: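 Firefly luciferase readout (Dual-Glo, 10 min RT) after 24 h, 37 °C compound exposure (final up to 57.5 uM) of HEK293 reporter cells cultured 24 h beforehand; PTC124 at 50 uM final as control inhibitor; activity scaled vehicle 0%, zero RLU -100%.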
row,SMILES,"activity change, positive = activation"
1,CCOC(=O)c1cc(-c2ccccc2)n(CC(=O)NCc2ccccc2OC)c1C,inactive: -20.7%
2,Fc1ccc(CNc2ncnc3c2c(-c2ccccc2)cn3-c2ccccc2)cc1,inactive: -26%
3,Cn1c(=O)n(C)c2cc(S(=O)(=O)Nc3ccccc3C(=O)O)ccc21,inactive: -2.77%
4,O=C(Nc1ccc(F)c(F)c1)C1CCCN(S(=O)(=O)c2cccc3nonc23)C1 (configuration not stated),inactive: -14.9%
5,Cc1ccc(C)c(N2CCN(C(=O)CN3C(=O)CSc4c3c(C)nn4-c3ccccc3)CC2)c1,inactive: 2.79%
6,Cc1c2cnn(-c3ccccc3)c(=O)c2c(C)n1CCCC(=O)Nc1ccc(F)cc1F,inactive: -14.2%
7,CCOC(=O)c1cc(-c2ccccc2)n(CCCC(=O)Nc2ccc(CC)cc2)c1C,inactive: -37.8%
8,NC(=O)c1cc(S(=O)(=O)NCC2CCC(C(=O)Nc3cccc(Cl)c3)CC2)cs1 (configuration not stated),inactive: -11.8%
9,Cc1c(Cl)cccc1NC(=O)CCS(=O)(=O)c1ccc(Br)s1,inactive: -12.3%
10,CC(C)(C)C1CCc2onc(C(=O)Nc3sc4c(c3C(N)=O)CCCC4)c2C1 (configuration not stated),inactive: 0.331%
11,CCCc1nnc(NC(=O)c2nc(S(=O)(=O)Cc3ccc(C)cc3)ncc2Cl)s1,inactive: -30.4%
12,Cc1ccc(NC(=O)CSc2nc3ccccc3c3nc(CCn4c(C)nc5ccccc54)nn23)cc1F,inactive: -65.2%
13,CCOc1ccccc1NS(=O)(=O)c1c(-c2ccc(C)cc2)csc1C(=O)OC,inactive: -32%
14,COc1ccc(-c2nc(SCC(=O)NCCCc3ccccc3)n[nH]2)cc1,inactive: -20.9%
15,COc1ccc(NC(=O)CCc2c(C)nn(-c3ccc(N4CCOCC4)nn3)c2C)cc1Cl,inactive: 13.4%
16,Cc1ccc2occ(CC(=O)Nc3ccc(S(N)(=O)=O)cc3)c2c1,inactive: -25.4%
17,CCN(CC)CCCNC(=O)c1oc2c(c1C)-c1nn(Cc3ccc(Cl)cc3)cc1CC2,inactive: -18.4%
18,COc1ccc(NC(=O)Cn2c(C)c3cnn(-c4ccccc4)c(=O)c3c2C)c(OC)c1,inactive: -11%
19,Cc1ccc(N(CC(=O)NC(C)c2ccccc2)S(=O)(=O)c2c(C)noc2C)cc1 (configuration not stated),inactive: -21.1%
20,Cc1cccc(-c2noc(C3CC(=O)N(c4ccc5c(c4)OCCO5)C3)n2)c1 (configuration not stated),inactive: 1.77%
21,CCOc1ccc(C2c3c(-c4ccccc4O)n[nH]c3C(=O)N2Cc2ccncc2)cc1 (configuration not stated),inactive: -42.3%
22,CCc1ccc(C(=O)c2cn(CC(=O)Nc3ccc(F)cc3)c3cc4c(cc3c2=O)OCO4)cc1,inactive: -26.6%
23,Cc1cc(OCC(=O)Nc2sc3c(c2C(N)=O)CCCC3)ccc1C(C)C,inactive: -13.2%
24,Cc1cc(C)c2c(=O)cc(CSCC(=O)Nc3nnc(C)s3)[nH]c2c1,inactive: -10.5%

row,SMILES,"activity change, positive = activation"
1,CCCNC(=O)Nc1cc(C(=O)NCc2cccc(OCC)c2)ccc1N1CCCC1,inactive: 1.44%
2,COc1ccc(N(C)C(=O)NCc2noc3ccc(C)cc23)c(OC)c1,inactive: -9.24%
3,COc1ccc(C(=O)CCC(=O)Nc2ccccc2C)cc1,inactive: 4.84%
4,COc1ccccc1NC(=O)CSCc1cc(=O)c2c(C)cc(C)cc2[nH]1,inactive: -10.8%
5,Cn1cc(C[C@@H](N)C(=O)O)c2ccccc21,"inactive: -6.63% [at 25.1 µM, percent change from vehicle, -100% = no light]"
6,Cc1cccc(NC(=O)C2CCCN(S(=O)(=O)c3c(C)noc3/C=C/N(C)C)C2)c1C (configuration not stated),inactive: -14%
7,CCC(Sc1nncn2c1cc1sccc12)C(=O)Nc1cccc(OC)c1 (configuration not stated),inactive: -34.8%
8,CC(C)(C)C1CCc2nc(NC(=O)Cc3ccc(Cl)cc3)sc2C1 (configuration not stated),inactive: -13%
9,CC(C)(C)c1ccc(C(=O)Nc2ccccc2C(=O)OCc2cc(=O)n3ccsc3n2)cc1,inactive: -7.95%
10,Cc1ccc(CN2CCN(C3CCN(C(=O)OC(C)(C)C)CC3)C(=O)C2=O)cc1,inactive: -13.5%
11,C/C(=C(\CCOP(=O)(O)O)SC(=O)c1ccccc1)N(C=O)Cc1cnc(C)nc1N,"inactive: 1.76% [at 6 µM, percent change from vehicle, -100% = no light]"
12,CCOC(=O)CC(NC(=O)Cn1nnc(-c2ccccc2C)n1)c1ccc(OC)cc1 (configuration not stated),inactive: -16%
13,Cc1cc2nc3c(=O)n(C)c(=O)n(C)c3nc2cc1N=CN(C)C,inactive: -6.16%
14,CCC(=O)N1CCc2cc(Br)cc(S(=O)(=O)CCC(=O)Nc3ccccc3C)c21,inactive: 9.98%
15,Cc1noc(-c2ccccc2OCC(=O)Nc2cccc([N+](=O)[O-])c2)n1,inactive: 2.34%
16,Cc1ccccc1NC(=O)CC1C(=O)NCCN1C(=O)c1cccc(Cl)c1 (configuration not stated),inactive: -0.186%
17,COC(=O)CCc1sc(Nc2ccc(OC)cc2)nc1-c1ccc(OC)cc1,inactive: -9.3%
18,CC(=O)c1ccc(N2CCN(C(=O)NCc3noc4ccc(C)cc34)CC2)cc1,inactive: -19.7%
19,CCOC(=O)C1CCCN(S(=O)(=O)c2ccc3[nH]c(=O)ccc3c2)C1 (configuration not stated),inactive: -25.9%
20,Cc1ccc(S(=O)(=O)NCc2nc3nc(C)cc(C)n3n2)c(C)c1,inactive: -5.08%
21,CCOC(=O)c1ccccc1NC(=O)CSc1nc2ncccc2[nH]1,inactive: -10.2%
22,CCN1c2ccccc2-c2nc(SCC(=O)Nc3ccc(C)c(Cl)c3)ncc2S1(=O)=O,inactive: -12.1%
23,COc1ccc(N2CCN(C(=O)CCS(=O)(=O)c3cc4c(cc3Cl)NC(=O)CO4)CC2)cc1,inactive: -24.7%
